Measured values published in US20260265359A1 (Hoffmann-La Roche, published 2026).

T1: recombinant human VEGF-A165 (human, UniProt P15692-4 27-191)
T1 sequence (looked up): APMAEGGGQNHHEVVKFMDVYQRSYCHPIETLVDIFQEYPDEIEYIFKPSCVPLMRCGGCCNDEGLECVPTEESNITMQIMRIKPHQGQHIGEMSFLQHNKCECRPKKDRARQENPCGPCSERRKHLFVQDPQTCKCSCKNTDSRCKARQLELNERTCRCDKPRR

T2: recombinant human PIGF (human, UniProt P49763-2 19-149, limits assumed)
T2 construct: also called PlGF; placental growth factor
T2 sequence (looked up): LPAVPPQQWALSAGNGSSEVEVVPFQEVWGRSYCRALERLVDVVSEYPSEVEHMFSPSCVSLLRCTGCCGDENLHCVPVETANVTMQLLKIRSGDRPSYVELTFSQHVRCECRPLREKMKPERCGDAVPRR

T3: recombinant human IL-6R (human, UniProt P08887 20-365, limits assumed)
T3 construct: Recombinant protein used in ELISA and as SPR analyte; also called hIL-6R
T3 sequence (looked up): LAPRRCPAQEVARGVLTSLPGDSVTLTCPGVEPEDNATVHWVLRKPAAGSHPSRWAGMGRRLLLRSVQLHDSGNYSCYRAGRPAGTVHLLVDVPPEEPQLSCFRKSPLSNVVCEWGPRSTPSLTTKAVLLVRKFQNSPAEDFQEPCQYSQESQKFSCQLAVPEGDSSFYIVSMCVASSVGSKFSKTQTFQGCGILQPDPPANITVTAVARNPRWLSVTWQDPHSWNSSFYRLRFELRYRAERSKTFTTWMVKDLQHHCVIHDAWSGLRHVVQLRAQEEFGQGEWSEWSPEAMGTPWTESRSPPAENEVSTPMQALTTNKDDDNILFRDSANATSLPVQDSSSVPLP

T4: recombinant human Ang-1 (human, UniProt Q15389 20-498, limits assumed)
T4 construct: also called Angiopoietin 1
T4 sequence (looked up): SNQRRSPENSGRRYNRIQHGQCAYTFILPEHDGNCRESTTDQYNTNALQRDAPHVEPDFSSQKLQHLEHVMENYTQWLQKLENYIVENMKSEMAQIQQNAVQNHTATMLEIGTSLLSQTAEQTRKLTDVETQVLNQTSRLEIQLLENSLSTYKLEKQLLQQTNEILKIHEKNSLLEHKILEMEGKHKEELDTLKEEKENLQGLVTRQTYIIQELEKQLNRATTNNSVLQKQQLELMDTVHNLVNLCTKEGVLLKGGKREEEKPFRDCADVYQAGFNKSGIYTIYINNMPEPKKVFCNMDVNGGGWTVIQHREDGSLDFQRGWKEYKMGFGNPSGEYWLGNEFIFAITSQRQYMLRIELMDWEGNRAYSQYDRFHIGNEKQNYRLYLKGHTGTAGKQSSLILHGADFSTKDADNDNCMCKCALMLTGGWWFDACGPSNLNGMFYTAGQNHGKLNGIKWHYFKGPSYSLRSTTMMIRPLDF

T5: recombinant human Ang-2 (human, UniProt O15123 19-496, limits assumed)
T5 construct: also called Angiopoietin-2; hAng-2
T5 sequence (looked up): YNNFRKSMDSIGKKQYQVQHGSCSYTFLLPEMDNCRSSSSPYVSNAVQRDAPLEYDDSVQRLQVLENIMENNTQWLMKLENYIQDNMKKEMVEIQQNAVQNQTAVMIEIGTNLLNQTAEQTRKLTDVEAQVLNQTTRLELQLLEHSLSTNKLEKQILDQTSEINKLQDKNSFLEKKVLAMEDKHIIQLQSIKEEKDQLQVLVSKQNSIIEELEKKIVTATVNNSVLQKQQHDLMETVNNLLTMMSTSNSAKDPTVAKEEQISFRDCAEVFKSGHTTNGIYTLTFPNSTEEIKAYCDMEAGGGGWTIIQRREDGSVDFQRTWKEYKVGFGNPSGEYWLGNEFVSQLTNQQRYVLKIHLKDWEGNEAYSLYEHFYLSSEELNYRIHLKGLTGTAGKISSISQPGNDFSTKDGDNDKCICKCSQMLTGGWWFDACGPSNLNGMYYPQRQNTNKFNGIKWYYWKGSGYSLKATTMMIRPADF

T6: recombinant human VEGF-B167 (human, UniProt P49765-2 22-188)
T6 sequence (looked up): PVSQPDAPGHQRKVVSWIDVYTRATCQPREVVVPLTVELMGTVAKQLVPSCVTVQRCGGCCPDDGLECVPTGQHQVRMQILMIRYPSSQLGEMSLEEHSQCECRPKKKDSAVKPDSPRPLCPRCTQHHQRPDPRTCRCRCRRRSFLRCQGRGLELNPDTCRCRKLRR

B1: EB-105BI-10C (other)
heavy: QVQLQESGPGLVRPSQTLSLTCTVSGYSITSDHAWSWVRQPPGRGLEWIGYISYSGITTYNPSLKSRVTMLRDTSKNQFSLRLSSVTAADTAVYYCARSLARTTAMDYWGQGSLVTVSSASTKGPSVFPLAPSSKSTSGGTAALGCLVKDYFPEPVTVSWNSGALTSGVHTFPAVLQSSGLYSLSSVVTVPSSSLGTQTYICNVNHKPSNTKVDKKV[human IgG1 Fc skipped]GGSGGGGSGGGGSMGAQQKFQPLDELEQTLYEQFMLQQALE
light: SDTGRPFVEMYSEIPEIIHMTEGRELVIPCRVTSPNITVTLKKFPLDTLIPDGKRIIWDSRKGFIISNATYKEIGLLTCEATVNGHLYKTNYLTHRQTNTIIDVVLSPSHGIELSVGEKLVLNCTARTELNVGIDFNWEYPSSKHQHKKLVNRDLKTQSGSEMKKFLSTLTIDGVTRSDQGLYTCAASSGLMTKKNSTFVRVHEKDIQMTQSPSSLSASVGDRVTITCRASQDISSYLNWYQQKPGKAPKLLIYYTSRLHSGVPSRFSGSGSGTDFTFTISSLQPEDIATYYCQQGNTLPYTFGQGTKVEIKRTVAAPSVFIFPPSDEQLKSGTASVVCLLNNFYPREAKVQWKVDNALQSGNSQESVTEQDSKDSTYSLSSTLTLSKADYEKHKVYACEVTHQGLSSPVTKSFNRGEC
notes: Trispecific antibody fusion protein, first embodiment; also called B21138003
B2: EB-105BI-15CA (other)
heavy: QVQLQESGPGLVRPSQTLSLTCTVSGYSITSDHAWSWVRQPPGRGLEWIGYISYSGITTYNPSLKSRVTMLRDTSKNQFSLRLSSVTAADTAVYYCARSLARTTAMDYWGQGSLVTVSSASTKGPSVFPLAPSSKSTSGGTAALGCLVKDYFPEPVTVSWNSGALTSGVHTFPAVLQSSGLYSLSSVVTVPSSSLGTQTYICNVNHKPSNTKVDKKV[human IgG1 Fc skipped]GGSGGGGSGGGGSMGAQQKYQPLDELDKTLYDQFMLQQGLE
light: B1 light
notes: Trispecific antibody fusion protein, first embodiment; also called B21138004
B3: EB-105BI-Con4C (other)
heavy: QVQLQESGPGLVRPSQTLSLTCTVSGYSITSDHAWSWVRQPPGRGLEWIGYISYSGITTYNPSLKSRVTMLRDTSKNQFSLRLSSVTAADTAVYYCARSLARTTAMDYWGQGSLVTVSSASTKGPSVFPLAPSSKSTSGGTAALGCLVKDYFPEPVTVSWNSGALTSGVHTFPAVLQSSGLYSLSSVVTVPSSSLGTQTYICNVNHKPSNTKVDKKV[human IgG1 Fc skipped]GGSGGGGSGGGGSAQQEECEWDPWTCEHMLE
light: B1 light
notes: Trispecific antibody fusion protein, first embodiment; also called B21138007
B4: EB-105BI-Con4-40CB (other)
heavy: QVQLQESGPGLVRPSQTLSLTCTVSGYSITSDHAWSWVRQPPGRGLEWIGYISYSGITTYNPSLKSRVTMLRDTSKNQFSLRLSSVTAADTAVYYCARSLARTTAMDYWGQGSLVTVSSASTKGPSVFPLAPSSKSTSGGTAALGCLVKDYFPEPVTVSWNSGALTSGVHTFPAVLQSSGLYSLSSVVTVPSSSLGTQTYICNVNHKPSNTKVDKKV[human IgG1 Fc skipped]GGSGGGGSAQTNIQEECEWDPWTCDHMPGKLE
light: B1 light
notes: Trispecific antibody fusion protein, first embodiment; also called B21138009
B5: EB-105BI-Con4-40CA (other)
heavy: QVQLQESGPGLVRPSQTLSLTCTVSGYSITSDHAWSWVRQPPGRGLEWIGYISYSGITTYNPSLKSRVTMLRDTSKNQFSLRLSSVTAADTAVYYCARSLARTTAMDYWGQGSLVTVSSASTKGPSVFPLAPSSKSTSGGTAALGCLVKDYFPEPVTVSWNSGALTSGVHTFPAVLQSSGLYSLSSVVTVPSSSLGTQTYICNVNHKPSNTKVDKKV[human IgG1 Fc skipped]GGSGGGGSGGGGSAQTNIQEECEWDPWTCDHMPGKLE
light: B1 light
notes: Trispecific antibody fusion protein, first embodiment; also called B21138008
B6: EB-105BI-21C (other)
heavy: QVQLQESGPGLVRPSQTLSLTCTVSGYSITSDHAWSWVRQPPGRGLEWIGYISYSGITTYNPSLKSRVTMLRDTSKNQFSLRLSSVTAADTAVYYCARSLARTTAMDYWGQGSLVTVSSASTKGPSVFPLAPSSKSTSGGTAALGCLVKDYFPEPVTVSWNSGALTSGVHTFPAVLQSSGLYSLSSVVTVPSSSLGTQTYICNVNHKPSNTKVDKKV[human IgG1 Fc skipped]GGSGGGGSGGGGSMGAQHTFQPLDELEETLYYQWLYDQLLE
light: B1 light
notes: Trispecific antibody fusion protein, first embodiment; also called B21138006
B7: EB-105BI-15CB (other)
heavy: QVQLQESGPGLVRPSQTLSLTCTVSGYSITSDHAWSWVRQPPGRGLEWIGYISYSGITTYNPSLKSRVTMLRDTSKNQFSLRLSSVTAADTAVYYCARSLARTTAMDYWGQGSLVTVSSASTKGPSVFPLAPSSKSTSGGTAALGCLVKDYFPEPVTVSWNSGALTSGVHTFPAVLQSSGLYSLSSVVTVPSSSLGTQTYICNVNHKPSNTKVDKKV[human IgG1 Fc skipped]GGSGGGGSMGAQQKYQPLDELDKTLYDQFMLQQGLE
light: B1 light
notes: Trispecific antibody fusion protein, first embodiment; also called B21138005

biological target: T1, recombinant human VEGF-A165; assay: cell-based or functional assay

| IC50, inhibition of VEGF-A165-stimulated VEGFR-2 NF-AT luciferase reporter (HEK-293), luminescence [nM] | Binder |
| --- | --- |
| 0.595 | B1 |
| 0.527 | B2 |

biological target: T1, recombinant human VEGF-A165; assay: cell-based or functional assay; remark: another data set of the same source

| IC50, inhibition of VEGF-A165-stimulated VEGFR-2 NF-AT luciferase reporter (HEK-293), luminescence [nM] | Binder |
| --- | --- |
| 0.674 | B3 |
| 0.594 | B4 |
| 0.544 | B5 |
| 0.638 | B6 |

biological target: T2, recombinant human PIGF; assay: ELISA on plate-coated recombinant human PIGF; anti-human IgG1-Fc-HRP, OD450
Method: (§1) After non-specific blocking using 1% BSA at 25° C. for 1 hour, a series of dilutions of test antibodies (“Abs”) were added into the coated wells and incubated at 25° C. for 1 hour. The bound Abs were detected using a secondary Ab (goat anti-human IgG1-Fc) conjugated with HRP followed by OD₄₅₀ reading.

| EC50 [nM] | Binder |
| --- | --- |
| 0.047 | B1 |
| 0.054 | B3 |
| 0.061 | B4 |
| 0.076 | B7 |
| 0.054 | B5 |
| 0.086 | B6 |
| 0.045 | B2 |

biological target: T3, recombinant human IL-6R; assay: ELISA on plate-coated recombinant human IL-6R; anti-human IgG1-Fc-HRP, OD450
Method: as §1
The same ELISA procedure was performed with recombinant human IL-6R. […] Vobarilizumab is a single domain antibody against IL-6R. B781402 and B781405 are bispecific fusion antibodies that inhibit VEGF-A, B, PIGF and IL-6R.

| EC50 [nM] | Binder |
| --- | --- |
| 0.091 | B1 |
| 0.328 | B3 |
| 0.031 | B4 |
| 0.08 | B7 |
| 0.103 | B5 |
| 0.211 | B6 |
| 0.095 | B2 |

biological target: T4, recombinant human Ang-1; assay: ELISA on plate-coated recombinant human Ang-1; anti-human IgG1-Fc-HRP, OD450
Method: as §1
The same ELISA procedure was performed with recombinant human Ang-1.

| EC50 [nM] | Binder |
| --- | --- |
| 15.4 | B1 |
| 4.22 | B4 |
| 2.27 | B5 |
| 10.6 | B6 |
| 3.81 | B2 |

biological target: T5, recombinant human Ang-2; assay: ELISA on plate-coated recombinant human Ang-2; anti-human IgG1-Fc-HRP, OD450
Method: as §1

| EC50 [nM] | Binder |
| --- | --- |
| 0.23 | B1 |
| 0.139 | B7 |
| 0.119 | B2 |

biological target: T5, recombinant human Ang-2; assay: as above; remark: another data set of the same source
Method: as §1

| EC50 [nM] | Binder |
| --- | --- |
| 0.205 | B1 |
| 0.113 | B4 |
| 0.146 | B5 |
| 0.206 | B6 |
| 0.186 | B2 |

biological target: T6, recombinant human VEGF-B167; assay: ELISA on plate-coated recombinant human VEGF-B167; anti-human IgG1-Fc-HRP, OD450
Method: as §1

| EC50 [nM] | Binder |
| --- | --- |
| 0.044 | B1 |
| 0.01 | B4 |
| 0.044 | B5 |
| 0.073 | B6 |
| 0.037 | B2 |

biological target: T1, recombinant human VEGF-A165; assay: ELISA on plate-coated recombinant human VEGF-A165; anti-human IgG1-Fc-HRP, OD450
Method: as §1

| EC50 [nM] | Binder |
| --- | --- |
| 0.062 | B1 |
| 0.145 | B3 |
| 0.072 | B4 |
| 0.069 | B7 |
| 0.088 | B5 |
| 0.091 | B6 |
| 0.065 | B2 |
